Test systems include WM115; WM1716; WM1745; WM3526; WM3619; WM451Lu.
Holding throughout (assay): cell count relative to DMSO control; melanoma cells; higher = more viable cells
What all share (details): library dose: low library concentration; 72 h

Some of the results follow. Single values are uncertain, as repeats are few or missing.
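Note: cell number obtained by counting DAPI-stained nuclei in high-throughput microscope images with image analysis software, screen run in 1,536-well plates.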

As for `C[C@]12O[C@H](C[C@]1(O)CO)n1c3ccccc3c3c4c(c5c6ccccc6n2c5c31)CNC4=O` [Lestaurtinib] + Clc1ccc(Nc2nnc(Cc3ccncc3)c3ccccc23)cc1 [vatalanib] (first compound 0.004 µM, partner dose 2 µM), the cell count in the assay with WM115 worked out at 94.3%; with WM1716, 102%; in the assay on WM1745, 101%; in the assay with WM3526 it was 102%; in the assay with WM3619, 103%; with WM451Lu, 163%.

In the case of `Cn1cc(C2=C(c3cn(C4CCN(Cc5ccccn5)CC4)c4ccccc34)C(=O)NC2=O)c2ccccc21` [Enzastaurin] + c1cc(-c2cnn3cc(-c4ccc(OCCN5CCCCC5)cc4)cnc23)ccn1 [Dorsomorphin] (first compound 0.8 µM, partner dose 0.4 µM), the cell count is 110% in the assay with WM115; 88.9% with WM1716; 71.3% with WM1745; 130% in the assay with WM3526; 87% with WM3619; 134% with WM451Lu.

For the molecule `C[C@]12O[C@H](C[C@]1(O)CO)n1c3ccccc3c3c4c(c5c6ccccc6n2c5c31)CNC4=O` [Lestaurtinib] + Cn1cc(/C=C2\C(=O)Nc3cccnc32)c2ccccc21 [GW441756] (first compound 0.004 µM, partner dose 0.4 µM), the cell count in the assay on WM115 was 92.8%; in the assay on WM1716, 127%; with WM1745, 76.8%; with WM3526, 93.5%; in the assay on WM3619, 117%; in the assay on WM451Lu it was 101%.

Regarding `Cn1cc(C2=C(c3cn(C4CCN(Cc5ccccn5)CC4)c4ccccc34)C(=O)NC2=O)c2ccccc21` [Enzastaurin] + COc1ccc(C2=N[C@@H](c3ccc(Cl)cc3)[C@@H](c3ccc(Cl)cc3)N2C(=O)N2CCNC(=O)C2)c(OC(C)C)c1 [Nutlin-3] (first compound 0.8 µM, partner dose 0.1 µM), the cell count in the assay with WM115 was determined as 108%; in the assay with WM1716, 118%; with WM1745, 79%; in the assay on WM3526, 110%; in the assay on WM3619 it was 109%; with WM451Lu, 113%.

With `Cn1cc(C2=C(c3cn(C4CCN(Cc5ccccn5)CC4)c4ccccc34)C(=O)NC2=O)c2ccccc21` [Enzastaurin] + COc1ccc(COc2ccc(Cc3cnc(N)nc3N)cc2OC)cc1 [GW2580] (first compound 0.8 µM, partner dose 1 µM), the cell count amounted to 121% with WM115; 104% with WM1716; 81.8% in the assay with WM1745; 107% in the assay with WM3526; 94.7% in the assay with WM3619; 119% in the assay on WM451Lu.

`N.N.[Cl][Pt][Cl]` [cisplatin] + Cn1cc(/C=C2\C(=O)Nc3cccnc32)c2ccccc21 [GW441756] (first compound 1.6 µM, partner dose 0.4 µM): the cell count with WM115 came to 86.5%; in the assay on WM1716 it was 89.5%; with WM1745 it was 96.9%; in the assay with WM3526, 79.3%; in the assay with WM3619, 80.6%; with WM451Lu, 69.7%.

Turning to `N.N.[Cl][Pt][Cl]` [cisplatin] + COc1cc2ncnc(Nc3ccc(Oc4ccccc4)cc3)c2cc1OC [SrcI1] (first compound 1.6 µM, partner dose 2 µM), the cell count with WM115 was 111%; with WM1716, 131%; with WM1745 it was 84.6%; with WM3526, 104%; in the assay with WM3619, 97%; in the assay on WM451Lu, 106%.

Turning to `C[C@]12O[C@H](C[C@]1(O)CO)n1c3ccccc3c3c4c(c5c6ccccc6n2c5c31)CNC4=O` [Lestaurtinib] + COc1cc2ncnc(Nc3ccc(Oc4ccccc4)cc3)c2cc1OC [SrcI1] (first compound 0.004 µM, partner dose 2 µM), the cell count in the assay on WM115 came out at 104%; in the assay on WM1716, 130%; with WM1745, 90.4%; with WM3526 it was 93.2%; in the assay on WM3619, 104%; in the assay on WM451Lu it was 98.8%.

Consider `Cn1cc(C2=C(c3cn(C4CCN(Cc5ccccn5)CC4)c4ccccc34)C(=O)NC2=O)c2ccccc21` [Enzastaurin] + C#Cc1cccc(Nc2ncnc3cc(OCCOC)c(OCCOC)cc23)c1 [erlotinib] (first compound 0.8 µM, partner dose 0.8 µM), for which the cell count in the assay with WM115 is 96.6%; in the assay with WM1716, 106%; with WM1745, 76.5%; in the assay on WM3526, 92.9%; in the assay on WM3619 it was 109%; with WM451Lu it was 107%.

In the case of `C[C@]12O[C@H](C[C@]1(O)CO)n1c3ccccc3c3c4c(c5c6ccccc6n2c5c31)CNC4=O` [Lestaurtinib] + Cn1cncc1[C@@](N)(c1ccc(Cl)cc1)c1ccc2c(c1)c(-c1cccc(Cl)c1)cc(=O)n2C [tipifarnib] (first compound 0.004 µM, partner dose 0.01 µM), the cell count amounted to 84.3% in the assay on WM115; 80.3% in the assay on WM1716; 94.3% in the assay on WM1745; 85.5% with WM3526; 88.8% in the assay on WM3619; 98.8% with WM451Lu.

With `C[C@]12O[C@H](C[C@]1(O)CO)n1c3ccccc3c3c4c(c5c6ccccc6n2c5c31)CNC4=O` [Lestaurtinib] + CC(=O)O[C@@]12CO[C@@H]1C[C@H](O)[C@@]1(C)C(=O)[C@H](O)C3=C(C)[C@@H](OC(=O)[C@H](O)[C@@H](NC(=O)OC(C)(C)C)c4ccccc4)C[C@@](O)([C@@H](OC(=O)c4ccccc4)[C@H]21)C3(C)C [Docetaxel] (first compound 0.004 µM, partner dose 0.0001 µM), the cell count in the assay with WM115 turned out to be 93.3%; in the assay on WM1716, 55.7%; in the assay on WM1745, 66.1%; with WM3526 it was 54.9%; in the assay with WM3619, 68.9%; with WM451Lu, 68.8%.

On to `C[C@]12O[C@H](C[C@]1(O)CO)n1c3ccccc3c3c4c(c5c6ccccc6n2c5c31)CNC4=O` [Lestaurtinib] + O=C(Nc1ccccc1)c1cc([N+](=O)[O-])ccc1Cl [GW9662] (first compound 0.004 µM, partner dose 2 µM), for which the cell count in the assay on WM115 was found to be 101%; in the assay with WM1716, 114%; in the assay on WM1745, 90.1%; in the assay with WM3526, 121%; in the assay with WM3619 it was 99.8%; in the assay on WM451Lu, 120%.

Take `N.N.[Cl][Pt][Cl]` [cisplatin] + O=S(=O)(c1ccccc1)N(CC(F)(F)F)c1ccc(C(O)(C(F)(F)F)C(F)(F)F)cc1 [T0901317] (first compound 1.6 µM, partner dose 1.4 µM): the cell count came out at 100% with WM115; 97.5% in the assay on WM1716; 93.5% in the assay on WM1745; 92.4% with WM3526; 101% in the assay with WM3619; 116% with WM451Lu.

Consider `C[C@]12O[C@H](C[C@]1(O)CO)n1c3ccccc3c3c4c(c5c6ccccc6n2c5c31)CNC4=O` [Lestaurtinib] + COc1cc2c(Oc3ccc4[nH]c(C)cc4c3F)ncnc2cc1OCCCN1CCCC1 [cediranib] (first compound 0.004 µM, partner dose 0.4 µM), for which the cell count worked out at 99.3% in the assay with WM115; 94% with WM1716; 107% in the assay on WM1745; 95.7% in the assay with WM3526; 109% in the assay with WM3619; 120% in the assay on WM451Lu.

In the case of `C[C@]12O[C@H](C[C@]1(O)CO)n1c3ccccc3c3c4c(c5c6ccccc6n2c5c31)CNC4=O` [Lestaurtinib] + O=C(Nc1cccc(Cl)c1)Nc1ncc(CCNc2ncnc3ccsc23)s1 [SNS314] (first compound 0.004 µM, partner dose 0.0008 µM), the cell count stood at 87.5% with WM115; 118% in the assay with WM1716; 111% in the assay on WM1745; 117% in the assay with WM3526; 125% in the assay on WM3619; 95.1% in the assay with WM451Lu.

As to `C[C@]12O[C@H](C[C@]1(O)CO)n1c3ccccc3c3c4c(c5c6ccccc6n2c5c31)CNC4=O` [Lestaurtinib] + COc1ccc2c(c1)CCC1C2CCC2(C)C(NCCCCCCN3C(=O)C=CC3=O)CCC12 [U73122] (first compound 0.004 µM, partner dose 0.4 µM), the cell count with WM115 came to 119%; in the assay on WM1716 it was 98%; in the assay with WM1745 it was 94.3%; in the assay on WM3526, 104%; with WM3619, 81.1%; in the assay on WM451Lu, 108%.

`Cn1cc(C2=C(c3cn(C4CCN(Cc5ccccn5)CC4)c4ccccc34)C(=O)NC2=O)c2ccccc21` [Enzastaurin] + O=C(CCCCCCC(=O)Nc1ccccc1)NO [vorinostat] (first compound 0.8 µM, partner dose 0.08 µM): the cell count worked out at 109% with WM115; 121% with WM1716; 94.4% with WM1745; 122% in the assay with WM3526; 54.9% with WM3619; 119% in the assay on WM451Lu.

Consider `N.N.[Cl][Pt][Cl]` [cisplatin] + Cn1c(Nc2ccc(C(F)(F)F)cc2)nc2cc(Oc3ccnc(-c4ncc(C(F)(F)F)[nH]4)c3)ccc21 [CHIR265] (first compound 1.6 µM, partner dose 0.08 µM), for which the cell count stood at 106% with WM115; 93.3% in the assay with WM1716; 96.6% with WM1745; 104% with WM3526; 106% with WM3619; 88.6% with WM451Lu.

Consider `N.N.[Cl][Pt][Cl]` [cisplatin] + CO[C@H]1C[C@@H]2CC[C@@H](C)[C@@](O)(O2)C(=O)C(=O)N2CCCC[C@H]2C(=O)O[C@H]([C@H](C)C[C@@H]2CC[C@@H](OCCO)[C@H](OC)C2)CC(=O)[C@H](C)/C=C(\C)[C@@H](O)[C@@H](OC)C(=O)[C@H](C)C[C@H](C)/C=C/C=C/C=C/1C [everolimus] (first compound 1.6 µM, partner dose 0.02 µM), for which the cell count in the assay with WM115 was determined as 88.1%; with WM1716 it was 74.4%; in the assay on WM1745 it was 88.5%; in the assay with WM3526, 75.2%; in the assay on WM3619, 73.4%; in the assay on WM451Lu it was 86.1%.

Consider `C[As](C)SC[C@H](NC(=O)CC[C@H](N)C(=O)O)C(=O)NCC(=O)O` [Darinaparsin] + Cc1cc(N2CCOCC2)cc2[nH]c(-c3c(NC[C@@H](O)c4cccc(Cl)c4)cc[nH]c3=O)nc12 [BMS536924] (first compound 0.4 µM, partner dose 0.2 µM), for which the cell count was 94.9% in the assay on WM115; 99.7% with WM1716; 83.2% in the assay with WM1745; 87.6% in the assay on WM3526; 93.7% with WM3619; 87.7% in the assay on WM451Lu.

`C[C@]12O[C@H](C[C@]1(O)CO)n1c3ccccc3c3c4c(c5c6ccccc6n2c5c31)CNC4=O` [Lestaurtinib] + CC(C)C[C@H](NC(=O)[C@H](Cc1ccccc1)NC(=O)c1cnccn1)B(O)O [Bortezomib] (first compound 0.004 µM, partner dose 0.001 µM): the cell count was found to be 87.3% with WM115; 38.4% with WM1716; 81% with WM1745; 95% in the assay with WM3526; 55.4% in the assay with WM3619; 88.9% with WM451Lu.

As to `N.N.[Cl][Pt][Cl]` [cisplatin] + CN(NC(=O)CC(=O)NN(C)C(=S)c1ccccc1)C(=S)c1ccccc1 [STA4783] (first compound 1.6 µM, partner dose 0.006 µM), the cell count with WM115 was 91%; in the assay on WM1716, 125%; in the assay on WM1745, 115%; in the assay with WM3526, 83.5%; with WM3619 it was 84.7%; in the assay on WM451Lu, 108%.

For the molecule `N.N.[Cl][Pt][Cl]` [cisplatin] + COc1cc(N2CCC(N3CCN(C)CC3)CC2)ccc1Nc1ncc(Cl)c(Nc2ccccc2S(=O)(=O)C(C)C)n1 [NVP-TAE684] (first compound 1.6 µM, partner dose 0.08 µM), the cell count with WM115 is 95.6%; in the assay with WM1716, 96.1%; with WM1745, 74.9%; in the assay on WM3526 it was 73.9%; with WM3619 it was 64.4%; in the assay with WM451Lu it was 95.5%.

As for `N.N.[Cl][Pt][Cl]` [cisplatin] + Nc1ncn([C@H]2C[C@H](O)[C@@H](CO)O2)c(=O)n1 [decitabine] (first compound 1.6 µM, partner dose 0.1 µM), the cell count in the assay on WM115 was found to be 86%; in the assay with WM1716, 75.9%; in the assay on WM1745, 95.1%; with WM3526 it was 104%; in the assay with WM3619, 83.5%; in the assay with WM451Lu, 83.8%.

For the molecule `C[C@]12O[C@H](C[C@]1(O)CO)n1c3ccccc3c3c4c(c5c6ccccc6n2c5c31)CNC4=O` [Lestaurtinib] + COc1cc(N2CCC(N3CCN(C)CC3)CC2)ccc1Nc1ncc(Cl)c(Nc2ccccc2S(=O)(=O)C(C)C)n1 [NVP-TAE684] (first compound 0.004 µM, partner dose 0.08 µM), the cell count in the assay with WM115 was determined as 89.6%; with WM1716 it was 94.5%; in the assay with WM1745, 84.9%; in the assay on WM3526, 73.1%; in the assay with WM3619, 75.6%; in the assay on WM451Lu, 107%.

The record behind these values is the supplement of paper PMC4604168 (melanoma cell lines).
